Data on three substances can be found in article PMC5934895.

The chains behind the UniProt entries cited, without tags or fusion partners. Where a name states a change or a piece, a line headed by the entry shows the natural chain unless it says otherwise.
UniProt P08670: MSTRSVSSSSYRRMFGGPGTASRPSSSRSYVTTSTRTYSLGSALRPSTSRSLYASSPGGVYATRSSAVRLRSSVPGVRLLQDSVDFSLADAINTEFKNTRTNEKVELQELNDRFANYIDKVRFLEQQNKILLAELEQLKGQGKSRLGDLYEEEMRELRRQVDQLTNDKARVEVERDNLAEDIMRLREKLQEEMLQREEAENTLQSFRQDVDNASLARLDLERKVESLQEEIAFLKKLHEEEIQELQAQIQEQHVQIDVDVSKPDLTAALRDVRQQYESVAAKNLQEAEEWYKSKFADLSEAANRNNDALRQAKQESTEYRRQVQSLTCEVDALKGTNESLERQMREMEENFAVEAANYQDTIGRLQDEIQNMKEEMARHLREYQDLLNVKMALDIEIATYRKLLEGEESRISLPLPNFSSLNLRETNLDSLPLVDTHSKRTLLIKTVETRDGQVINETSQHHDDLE
UniProt P49792: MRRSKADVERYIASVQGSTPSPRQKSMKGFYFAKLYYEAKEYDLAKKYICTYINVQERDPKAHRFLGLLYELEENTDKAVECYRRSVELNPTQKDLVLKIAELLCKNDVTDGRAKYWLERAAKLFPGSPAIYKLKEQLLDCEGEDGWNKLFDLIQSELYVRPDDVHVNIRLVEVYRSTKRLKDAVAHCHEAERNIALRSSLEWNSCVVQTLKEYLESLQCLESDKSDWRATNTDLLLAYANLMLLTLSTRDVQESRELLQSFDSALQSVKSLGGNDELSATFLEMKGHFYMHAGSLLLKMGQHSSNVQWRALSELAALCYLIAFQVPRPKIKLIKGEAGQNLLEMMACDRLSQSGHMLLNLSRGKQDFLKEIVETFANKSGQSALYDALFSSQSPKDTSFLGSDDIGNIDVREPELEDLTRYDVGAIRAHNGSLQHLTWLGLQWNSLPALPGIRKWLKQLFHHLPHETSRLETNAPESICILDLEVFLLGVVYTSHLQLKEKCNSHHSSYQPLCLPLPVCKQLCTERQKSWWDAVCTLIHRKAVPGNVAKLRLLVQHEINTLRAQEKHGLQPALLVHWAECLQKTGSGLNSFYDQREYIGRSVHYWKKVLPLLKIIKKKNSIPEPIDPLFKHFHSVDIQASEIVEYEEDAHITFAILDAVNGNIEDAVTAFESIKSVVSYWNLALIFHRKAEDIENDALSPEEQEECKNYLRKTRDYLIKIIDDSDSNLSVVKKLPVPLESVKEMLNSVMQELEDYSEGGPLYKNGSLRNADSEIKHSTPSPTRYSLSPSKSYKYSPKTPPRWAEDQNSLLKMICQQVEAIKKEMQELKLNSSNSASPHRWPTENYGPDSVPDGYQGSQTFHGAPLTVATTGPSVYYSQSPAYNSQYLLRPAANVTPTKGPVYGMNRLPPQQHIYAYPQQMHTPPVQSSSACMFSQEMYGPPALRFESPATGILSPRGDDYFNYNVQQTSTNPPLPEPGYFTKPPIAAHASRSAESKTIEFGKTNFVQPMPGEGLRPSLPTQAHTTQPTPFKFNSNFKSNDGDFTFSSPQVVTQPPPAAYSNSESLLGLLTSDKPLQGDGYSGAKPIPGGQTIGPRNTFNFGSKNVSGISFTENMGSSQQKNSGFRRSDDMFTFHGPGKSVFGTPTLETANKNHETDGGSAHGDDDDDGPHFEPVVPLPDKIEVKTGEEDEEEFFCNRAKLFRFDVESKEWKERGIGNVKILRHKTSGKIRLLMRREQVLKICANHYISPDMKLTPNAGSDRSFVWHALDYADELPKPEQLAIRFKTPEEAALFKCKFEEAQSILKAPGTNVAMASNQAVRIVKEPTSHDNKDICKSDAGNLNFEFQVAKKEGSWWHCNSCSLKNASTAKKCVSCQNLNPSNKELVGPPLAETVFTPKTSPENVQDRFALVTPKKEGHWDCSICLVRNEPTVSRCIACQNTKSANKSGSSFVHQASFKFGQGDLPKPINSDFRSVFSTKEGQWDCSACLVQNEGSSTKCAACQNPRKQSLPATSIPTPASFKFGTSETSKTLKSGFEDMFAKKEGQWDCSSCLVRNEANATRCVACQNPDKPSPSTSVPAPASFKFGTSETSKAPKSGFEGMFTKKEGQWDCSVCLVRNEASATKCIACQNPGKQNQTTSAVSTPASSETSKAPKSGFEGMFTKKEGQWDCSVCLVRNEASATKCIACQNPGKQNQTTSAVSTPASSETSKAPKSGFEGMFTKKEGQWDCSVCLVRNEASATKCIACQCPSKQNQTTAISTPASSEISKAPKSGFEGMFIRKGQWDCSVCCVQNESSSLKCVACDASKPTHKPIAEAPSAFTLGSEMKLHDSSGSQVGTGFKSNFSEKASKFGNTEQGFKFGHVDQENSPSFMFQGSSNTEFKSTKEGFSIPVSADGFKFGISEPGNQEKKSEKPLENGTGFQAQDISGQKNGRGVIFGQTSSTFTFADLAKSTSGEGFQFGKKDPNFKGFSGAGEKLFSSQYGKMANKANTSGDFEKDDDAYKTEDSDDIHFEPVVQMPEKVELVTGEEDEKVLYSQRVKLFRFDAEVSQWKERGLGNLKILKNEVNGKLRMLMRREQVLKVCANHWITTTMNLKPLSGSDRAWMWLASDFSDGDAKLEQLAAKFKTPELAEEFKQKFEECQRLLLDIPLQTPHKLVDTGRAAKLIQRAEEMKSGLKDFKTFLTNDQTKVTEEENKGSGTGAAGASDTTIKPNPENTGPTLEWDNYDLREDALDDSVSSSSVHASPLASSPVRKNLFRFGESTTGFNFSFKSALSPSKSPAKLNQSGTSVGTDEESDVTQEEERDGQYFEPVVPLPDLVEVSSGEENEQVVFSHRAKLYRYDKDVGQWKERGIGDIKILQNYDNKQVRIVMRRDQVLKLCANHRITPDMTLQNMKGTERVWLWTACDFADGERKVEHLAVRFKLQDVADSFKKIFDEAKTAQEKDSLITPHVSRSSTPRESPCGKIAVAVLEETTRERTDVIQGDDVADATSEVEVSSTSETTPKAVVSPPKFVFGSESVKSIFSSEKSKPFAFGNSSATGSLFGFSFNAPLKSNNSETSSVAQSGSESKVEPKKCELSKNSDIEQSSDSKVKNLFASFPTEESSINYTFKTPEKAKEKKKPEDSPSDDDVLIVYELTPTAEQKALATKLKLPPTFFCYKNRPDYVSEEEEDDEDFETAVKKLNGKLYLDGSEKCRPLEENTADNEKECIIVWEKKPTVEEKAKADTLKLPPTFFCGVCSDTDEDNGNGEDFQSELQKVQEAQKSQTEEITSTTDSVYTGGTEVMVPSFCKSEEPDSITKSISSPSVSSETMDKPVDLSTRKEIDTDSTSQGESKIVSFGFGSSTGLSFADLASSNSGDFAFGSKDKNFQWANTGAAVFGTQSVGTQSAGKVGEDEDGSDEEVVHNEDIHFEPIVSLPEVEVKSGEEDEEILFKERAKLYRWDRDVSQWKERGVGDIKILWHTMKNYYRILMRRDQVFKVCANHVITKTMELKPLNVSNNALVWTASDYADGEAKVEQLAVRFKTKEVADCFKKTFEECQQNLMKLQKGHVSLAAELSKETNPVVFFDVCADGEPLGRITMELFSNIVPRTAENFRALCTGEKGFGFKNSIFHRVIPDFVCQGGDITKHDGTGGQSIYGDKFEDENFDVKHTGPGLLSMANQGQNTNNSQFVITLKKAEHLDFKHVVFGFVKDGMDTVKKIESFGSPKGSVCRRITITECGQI

No constants are given. Whether binding was seen depends on the method and setting. Binding seen in cells or lysates may run through a third protein. Some binding calls cover weakened binding; strength is not graded here. For some assays here: Sequences can lack the tags named with a protein.

Holding throughout (assay): co-IP; GFP-coprecipitation: cell lysates in NP-40 lysis buffer (10 mM Tris/HCl pH 7.5, 150 mM NaCl, 5 mM EDTA, 0.5% NP-40) on GFP-trap A beads, 4 °C, 15-120 min, three washes; immunoblot
On the technique in general: Immunoblotting shows a protein as a band on a membrane.

For one test, the target named is GFP-tagged vimentin (UniProt P08670).
The target of a further test is T1, GFP-tagged Nup50 (UniProt Q9UKX7).
T1 sequence: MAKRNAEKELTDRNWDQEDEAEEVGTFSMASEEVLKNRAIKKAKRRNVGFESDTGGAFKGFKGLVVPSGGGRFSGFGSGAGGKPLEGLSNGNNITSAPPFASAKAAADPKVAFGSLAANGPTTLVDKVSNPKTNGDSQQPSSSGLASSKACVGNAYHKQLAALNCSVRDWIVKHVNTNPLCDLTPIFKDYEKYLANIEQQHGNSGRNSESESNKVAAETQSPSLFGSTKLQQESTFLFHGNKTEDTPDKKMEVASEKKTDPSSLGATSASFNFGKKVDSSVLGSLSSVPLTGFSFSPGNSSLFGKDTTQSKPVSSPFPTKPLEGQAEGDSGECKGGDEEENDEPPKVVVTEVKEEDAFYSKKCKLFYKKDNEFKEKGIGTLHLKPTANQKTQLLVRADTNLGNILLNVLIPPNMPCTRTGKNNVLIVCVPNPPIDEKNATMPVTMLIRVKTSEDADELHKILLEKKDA

The target in the next test is T2, Nup88(303-741)-GFP (UniProt Q99567).
T2 sequence: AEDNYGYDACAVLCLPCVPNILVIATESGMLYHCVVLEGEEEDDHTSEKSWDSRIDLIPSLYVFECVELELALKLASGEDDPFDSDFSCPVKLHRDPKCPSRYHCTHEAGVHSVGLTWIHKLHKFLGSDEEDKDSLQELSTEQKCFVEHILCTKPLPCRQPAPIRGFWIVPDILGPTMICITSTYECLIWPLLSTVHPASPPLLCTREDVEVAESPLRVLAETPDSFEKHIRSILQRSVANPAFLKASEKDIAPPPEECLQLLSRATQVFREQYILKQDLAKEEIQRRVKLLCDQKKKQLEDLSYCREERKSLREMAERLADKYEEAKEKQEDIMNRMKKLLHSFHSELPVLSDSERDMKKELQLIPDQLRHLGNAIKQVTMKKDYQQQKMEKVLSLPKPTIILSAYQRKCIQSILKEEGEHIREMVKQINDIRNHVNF

The target in a further test is T3, Nup88(1-541)-GFP (UniProt Q99567).
T3 sequence: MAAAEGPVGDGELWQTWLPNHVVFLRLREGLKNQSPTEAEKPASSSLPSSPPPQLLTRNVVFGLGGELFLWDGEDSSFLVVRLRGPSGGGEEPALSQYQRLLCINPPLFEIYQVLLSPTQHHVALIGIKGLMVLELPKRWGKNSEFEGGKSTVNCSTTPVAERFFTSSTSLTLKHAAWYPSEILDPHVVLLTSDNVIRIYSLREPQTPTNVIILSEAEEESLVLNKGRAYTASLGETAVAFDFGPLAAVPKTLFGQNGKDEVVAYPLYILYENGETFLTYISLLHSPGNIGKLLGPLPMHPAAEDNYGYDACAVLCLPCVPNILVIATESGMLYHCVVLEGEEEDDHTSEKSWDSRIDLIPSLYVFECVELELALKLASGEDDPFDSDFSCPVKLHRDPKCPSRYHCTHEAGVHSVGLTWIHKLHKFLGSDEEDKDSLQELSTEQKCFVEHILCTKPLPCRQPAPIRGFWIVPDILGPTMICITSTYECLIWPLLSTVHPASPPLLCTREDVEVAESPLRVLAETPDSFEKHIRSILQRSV

The next test concerns the target T4, GFP-tagged Nup88 (UniProt Q99567).
T4 sequence: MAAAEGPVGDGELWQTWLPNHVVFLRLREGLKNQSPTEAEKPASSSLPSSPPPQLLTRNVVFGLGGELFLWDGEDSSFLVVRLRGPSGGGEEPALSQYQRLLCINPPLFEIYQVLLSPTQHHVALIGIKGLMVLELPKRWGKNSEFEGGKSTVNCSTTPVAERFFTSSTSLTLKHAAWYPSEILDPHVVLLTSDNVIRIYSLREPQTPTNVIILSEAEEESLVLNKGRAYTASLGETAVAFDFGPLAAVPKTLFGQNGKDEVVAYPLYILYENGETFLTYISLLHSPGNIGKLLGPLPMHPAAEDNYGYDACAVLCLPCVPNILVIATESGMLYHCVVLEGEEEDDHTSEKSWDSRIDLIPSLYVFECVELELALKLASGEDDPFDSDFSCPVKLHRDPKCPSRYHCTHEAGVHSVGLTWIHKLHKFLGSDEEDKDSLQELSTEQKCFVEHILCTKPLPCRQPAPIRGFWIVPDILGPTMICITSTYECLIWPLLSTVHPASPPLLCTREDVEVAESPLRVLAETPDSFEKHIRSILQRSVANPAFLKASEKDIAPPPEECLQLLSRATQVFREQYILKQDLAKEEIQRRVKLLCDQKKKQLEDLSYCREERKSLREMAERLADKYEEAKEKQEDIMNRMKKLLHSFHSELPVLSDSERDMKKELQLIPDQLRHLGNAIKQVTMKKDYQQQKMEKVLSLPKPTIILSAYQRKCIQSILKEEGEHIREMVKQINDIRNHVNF

Take “Halo-tagged Nup358 (from UniProt P49792 1-3224)”: in the test with GFP-tagged vimentin, the binding entry is recorded as “no binding”. As for “vimentin (endogenous, HeLa) (from UniProt P08670 1-466)”, the binding result with GFP-tagged Nup50 is “no binding”; in the test with Nup88(303-741)-GFP it was “no binding”; in the test with Nup88(1-541)-GFP, “binds”. For “N-terminal truncated vimentin (Δ1-96-FLAG) (from UniProt P08670 97-466) (domain or fragment)”, in the test with GFP-tagged Nup88, the binding result was “binds”.
